SMILES strings stand for the structures. Over roughly 1,000 compounds, “relative growth recovery (pomalidomide 10 uM = 100%, DMSO = 0%)” has its median near -1.6; the highest 2% begin near 21. This is one part of the list.

This test deals with HEK293FT dCK*-IKZF1. Nature of the test: relative growth recovery (pomalidomide 10 uM = 100%, DMSO = 0%); higher = more growth rescue (IKZF1 fusion degradation). The settings on record: compound concentration: 5 uM; AraC concentration: 0.3 uM; overnight pretreatment + 4 days AraC. How it is done: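 Growth recovery screen of the molecular-glue-like (Specs) library. HEK293FT cells expressing a dCK*-IKZF1 fusion (primary) or dCK* alone (counter) were pretreated overnight with compound at 5 uM, then given 0.3 uM AraC for 4 days. Hoechst nuclei were counted by imaging. Primary: normalised to pomalidomide (100%) and DMSO (0%), mean of 2 replicates. Counter: normalised to no-AraC (100%) and AraC+DMSO (0%), single replicate.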
Regarding `CNc1cc(C(=O)N2CCOC(c3cccc(Nc4nc(C)c(C)s4)n3)C2)ccn1` (centres undefined), the relative growth recovery was 8.12%.
The figure for `O=C(CCC1CCCCC1)Nc1ccc(S(=O)(=O)Nc2ncccn2)cc1` is -4.24%; for `O=C1CCC(N2C(=O)c3cccc(O)c3C2=O)C(=O)N1` (centres undefined) it is 2.45%; for `COc1cc(NS(=O)(=O)c2ccc(NC(=O)/C=C/c3ccco3)cc2)nc(OC)n1` it is 1.19%.
The figure for `O=C(Nc1ccc(S(=O)(=O)Nc2ncccn2)cc1)c1ccc2c(c1)OCO2` is -3.11%; for `Cc1cc(NS(=O)(=O)c2ccc(NC(=O)COc3ccccc3Cl)cc2)nc(C)n1` it is 3.46%.
The figure for `COc1cccc(C(=O)Nc2ccc(S(=O)(=O)Nc3cc(C)nc(C)n3)cc2)c1` is 0.84%.
Regarding `CC(C)C(=O)Nc1ccc(C(=O)Nc2ccc(S(=O)(=O)Nc3ncccn3)cc2)cc1`, the relative growth recovery is -5.28%.
The figure for `O=C(Cc1cccs1)Nc1ccc(Oc2ccc3c(c2)C(=O)N(c2ccc(O)cc2)C3=O)cc1` is -1.26%.
The figure for `CCOc1ccc(/C=C/C(=O)Nc2ccc(S(=O)(=O)Nc3cc(C)nc(C)n3)cc2)cc1OC` is -5.05%.
The figure for `O=C(CSCc1ccccc1)Nc1ccc(S(=O)(=O)Nc2ncccn2)cc1` is -0.225%; for `Cc1cnc(Nc2cccc(C3CN(C(=O)C4C5CCCCC54)CCO3)n2)s1` (centres undefined) it is -2.5%; for `Cc1ccc(NC(=O)CSc2nnc3c(n2)[nH]c2ccc(F)cc23)cc1Cl` it is -7.58%.
On to `COc1ccc2[nH]c3nc(SCC(=O)Nc4cccc(F)c4)nnc3c2c1`, for which the relative growth recovery is -7.96%.
In the case of `COc1ccc(CC(=O)Nc2ccc(S(=O)(=O)Nc3cc(OC)nc(OC)n3)cc2)cc1`, the relative growth recovery was -8.12%.
The figure for `Cc1ccc(OCC(=O)Nc2ccc(S(=O)(=O)Nc3cc(C)nc(C)n3)cc2)c(C)c1` is 3.49%.
The figure for `COCC(=O)Nc1ccc(S(=O)(=O)Nc2ccccn2)cc1` is -1.12%.
The figure for `Cc1ccc(C)c(OCC(=O)Nc2ccc(S(=O)(=O)Nc3ncccn3)cc2)c1C` is -7.75%; for `Cc1cc(Cl)ccc1OCCCC(=O)Nc1ccc(S(=O)(=O)Nc2ncccn2)cc1` it is -2.29%.
On to `CCC(=O)Nc1ccc(Oc2ccc3c(c2)C(=O)N(c2ccc(O)cc2)C3=O)cc1`, for which the relative growth recovery is -2.1%.
The figure for `CO[C@H]1CC[C@H](C(=O)N2CCOC(c3cccc(Nc4ncc(C)s4)n3)C2)CC1` (some centres undefined) is 6.34%; for `Cc1cc(C)nc(NS(=O)(=O)c2ccc(NC(=O)CCN3C(=O)c4ccccc4C3=O)cc2)n1` it is 1.37%.
The figure for `O=C(NCc1cnc(Nc2cccc(C3CCN(C(=O)C4CCCCC4)CC3)n2)s1)c1cccc(F)c1` is -9.71%.
The figure for `Cc1cc(C)nc(NS(=O)(=O)c2ccc(NC(=O)COc3ccc4ccccc4c3)cc2)n1` is -5.12%.
As to `COc1ccc(NS(=O)(=O)c2ccc(NS(=O)(=O)c3ccccc3[N+](=O)[O-])cc2)nn1`, the relative growth recovery is 0.77%.
The figure for `Cc1cnc(Nc2cccc(C3CCN(C(=O)CC4(O)CCCCC4)CC3)n2)s1` is -16%; for `CCCc1cnc(Nc2cccc(C3CCN(C(=O)CN(C)C)CC3)n2)s1` it is -16.6%.
Turning to `Cc1cc(C)nc(SCC(=O)Nc2ccc(S(=O)(=O)Nc3ncccn3)cc2)n1`, the relative growth recovery was 3.9%.
The figure for `COCC(=O)N1CCCC1c1cccc(Nc2nc(C)cs2)n1` (centres undefined) is -7.27%; for `COc1cc(NS(=O)(=O)c2ccc(NC(=O)c3ccccc3)cc2)nc(OC)n1` it is -4.58%.
The figure for `Cc1ccc(C(C)(C)C(=O)N2CCCC2c2cccc(Nc3ncc(C)s3)n2)cc1` (centres undefined) is -16.8%; for `CC(C)C(C(=O)Nc1ccc(S(=O)(=O)Nc2ncccn2)cc1)N1C(=O)c2ccccc2C1=O` (centres undefined) it is -6.84%; for `Cc1cnc(Nc2cccc(C3CCN(C(=O)C4(NC(=O)CC(C)(C)C)CCCCC4)CC3)n2)s1` it is -16.1%.
For `Cc1cnc(Nc2cccc(C3CCN(CC(=O)Nc4ccc(F)cc4)CC3)n2)s1`, the relative growth recovery is -10.2%.
On to `Cc1ccnc(NS(=O)(=O)c2ccc(NC(=O)CCCc3ccccc3)cc2)n1`, for which the relative growth recovery was -4.65%.
Consider `Cc1ccnc(NS(=O)(=O)c2ccc(NC(=O)c3ccc(-c4ccccc4)cc3)cc2)n1`, for which the relative growth recovery worked out at 1.61%.
The figure for `COc1cc(NS(=O)(=O)c2ccc(Nc3nc(-c4sc(C)nc4C)cs3)cc2)nc(OC)n1` is -1.67%.
The figure for `CCc1nccn1CC(=O)N1CCOC(c2cccc(Nc3ncc(C)s3)n2)C1` (centres undefined) is 0.35%; for `Cc1cnc(Nc2cccc(C3CCN(C(=O)C4CC(=O)N(C)C4)CC3)n2)s1` (centres undefined) it is -12.4%.
The figure for `Cc1cnc(Nc2cccc(C(C(=O)N(C)C)C3CCN(C(=O)c4cccc(Cl)c4F)CC3)n2)s1` (centres undefined) is 1.75%; for `CCOC(=O)c1nc[nH]c1C(=O)N1CCOC(c2cccc(Nc3ncc(C)s3)n2)C1` (centres undefined) it is 0.895%; for `O=C(CN1C(=O)c2ccccc2C1=O)Nc1ccc(S(=O)(=O)Nc2ncccn2)cc1` it is 2.43%.
For `COc1ccc(OCCCC(=O)Nc2ccc(S(=O)(=O)Nc3nc(C)cc(C)n3)cc2)cc1`, the relative growth recovery was -2.08%.
The figure for `Cc1ccnc(NS(=O)(=O)c2ccc(NC(=O)C3CCCCC3)cc2)n1` is -2.31%; for `Cc1cnc(Nc2cccc(C3CN(C(=O)Cn4c(CC(C)C)nc5ccccc54)CCO3)n2)s1` (centres undefined) it is -13.6%; for `Cc1cccc(C(=O)Nc2ccc(S(=O)(=O)Nc3cc(C)nc(C)n3)cc2)c1` it is -0.425%.
The figure for `Cc1cc(C)nc(NS(=O)(=O)c2ccc(NC(=O)c3ccccc3C(=O)O)cc2)n1` is 0.245%.
For the compound `Cc1cc(C)nc(NS(=O)(=O)c2ccc(NC(=O)CCCOc3ccc(Cl)cc3)cc2)n1`, the relative growth recovery is -0.33%.
The figure for `O=C(CCCOc1ccccc1)Nc1ccc(S(=O)(=O)Nc2ccccn2)cc1` is -3.42%; for `CC(=O)Nc1ccc(Oc2ccc3c(c2)C(=O)N(c2cccc(OC(C)=O)c2)C3=O)cc1` it is -2.87%.
As for `O=C1CCC(N2C(=O)c3cccc(Br)c3C2=O)C(=O)N1` (centres undefined), the relative growth recovery stood at 2.69%.
The figure for `Cc1cc(C)nc(NS(=O)(=O)c2ccc(NC(=O)CSc3nc(C)cc(C)n3)cc2)n1` is -4.42%.
The figure for `Cc1cnc(Nc2cccc(CC3CCN(C(=O)c4ccccc4F)CC3)n2)s1` is -9.56%.
The figure for `CCCCc1cnc(Nc2cccc(C3CCN(C(=O)C4CCCCC4)CC3)n2)s1` is -10.6%; for `O=C(C1CCCCC1)N1CCOC(c2cccc(Nc3ncc(Cc4ccc(Cl)cc4)s3)n2)C1` (centres undefined) it is 10.4%; for `CC(C)c1ccc(OCC(=O)Nc2ccc(S(=O)(=O)Nc3ncccn3)cc2)cc1` it is -4.12%.
`CCCCc1cnc(Nc2cccc(C3CCN(C(=O)C4(C)CCCN4C(=O)OC(C)(C)C)CC3)n2)s1` (centres undefined): the relative growth recovery was -14.5%.
The figure for `O=C(O)CCOCCOCCOCCOCCNc1ccc2c(c1)C(=O)N(C1CCC(=O)NC1=O)C2=O` (centres undefined) is -7.41%; for `Cc1cnc(Nc2cccc(CC3CCN(C(=O)c4ccccc4)CC3)n2)s1` it is -3.71%.
The figure for `CNCC(=O)N1CCC(c2cccc(Nc3ncc(-c4cccnc4)s3)n2)CC1` is -15%.
In the case of `O=S(=O)(Nc1ncccn1)c1ccc(-n2cccc2)cc1`, the relative growth recovery was -7.87%.
The figure for `CCOCCC(=O)Nc1ccc(S(=O)(=O)Nc2nccc(C)n2)cc1` is 0.77%; for `Cc1cc(C)nc(NS(=O)(=O)c2ccc(NS(=O)(=O)/C=C/c3ccccc3)cc2)n1` it is 4.63%.
The figure for `Cc1csc(Nc2cccc(C3CCCN3C(=O)CC3CC(C)(C)NC(C)(C)C3)n2)n1` (centres undefined) is -0.835%; for `Cc1ccnc(NS(=O)(=O)c2ccc(NS(C)(=O)=O)cc2)n1` it is -3.19%; for `Cc1ccc(S(=O)(=O)Nc2ccc(S(=O)(=O)Nc3nccc(C)n3)cc2)cc1` it is 2.65%.
The figure for `Cc1cnc(Nc2cccc(C3CCN(C(=O)C4CCCC(C)C4)CC3)n2)s1` (centres undefined) is -10.7%; for `Cc1cc(C)nc(NS(=O)(=O)c2ccc(NC(=O)CSc3nnnn3-c3ccccc3)cc2)n1` it is -4.58%.
For `COc1ccccc1CCC(=O)N1CCCC1c1cccc(Nc2nc(C)cs2)n1` (centres undefined), the relative growth recovery amounted to 7.08%.
The figure for `CC(C)(C)C(=O)Nc1ccc(S(=O)(=O)Nc2ncccn2)cc1` is -2.37%.
Regarding `O=C(C1CCCCC1)N1CCOC(c2cccc(Nc3ncc(Cc4cccc(Cl)c4)s3)n2)C1` (centres undefined), the relative growth recovery was -0.2%.
`O=C(CCc1cccc(Cl)c1)N1CCOC(c2cccc(Nc3nccs3)n2)C1` (centres undefined): the relative growth recovery was found to be 14.7%.
The figure for `Cc1ccnc(NS(=O)(=O)c2ccc(NC(=O)c3ccc4c(c3)OCO4)cc2)n1` is 0.925%.
The figure for `CCOC(=O)CN(C(=O)CSc1nnc2c(n1)[nH]c1ccc(OC)cc12)c1ccc(F)cc1` is 2.35%.
The figure for `Nc1ccc(S(=O)(=O)Nc2nccc(/C=C/c3ccc(Br)s3)n2)cc1` is -3.98%; for `COc1cc(NS(=O)(=O)c2ccc(NCc3ccccc3O)cc2)nc(OC)n1` it is -2.96%; for `CN(Cc1ccccc1)[C@@H]1CCC[C@@H](n2cnc3c(N)nc(N)nc32)[C@@H]1O` it is 1.06%.
Regarding `CN1CCCc2cc(C(=O)N3CCCC3c3cccc(Nc4nccs4)n3)ccc21` (centres undefined), the relative growth recovery stood at 12.2%.
As to `Cc1cc(NS(=O)(=O)c2ccc(NC(=O)C(C)(C)C)cc2)nc(C)n1`, the relative growth recovery was -1.96%.
The figure for `CCCc1cnc(Nc2cccc(C3CCN(C(=O)C4CCCCN4CC(=O)O)CC3)n2)s1` (centres undefined) is -13.7%; for `Cc1ccnc(NS(=O)(=O)c2ccc(NC(=O)COc3ccccc3)cc2)n1` it is -1.05%; for `Cc1ccc(C)c2c1[nH]c1nc(SCC(=O)Nc3ccc(F)c(Cl)c3)nnc12` it is -0.34%.
The figure for `COc1cc(C(=O)Nc2ccc(S(=O)(=O)Nc3ncccn3)cc2)cc(OC)c1OC` is -0.2%; for `CC(C)Oc1ccc(C(=O)Nc2ccc(S(=O)(=O)Nc3ncccn3)cc2)cc1` it is -5.52%; for `Cc1cc(C)nc(NS(=O)(=O)c2ccc(NC(=O)c3ccc(Cl)cc3)cc2)n1` it is -3.43%.
Regarding `Cc1cccnc1Nc1nc(C2CCN(CC(N)=O)CC2)cs1`, the relative growth recovery was -6.52%.
The figure for `COc1ccc(C(=O)Nc2ccc(S(=O)(=O)Nc3ncccn3)cc2)c(OC)c1` is -1.31%; for `COc1cc(NS(=O)(=O)c2ccc(NC(=O)Cc3ccccc3)cc2)nc(OC)n1` it is -1%.
The figure for `O=C(C1CCCCC1)N1CCC(c2cccc(Nc3nccs3)n2)CC1` is -7.92%; for `Cc1cccc(C)c1OCC(=O)Nc1ccc(S(=O)(=O)Nc2ncccn2)cc1` it is 1.77%.
The figure for `CC(=O)NC1(CC(=O)N2CCC(c3cccc(Nc4ncc(C)s4)n3)CC2)CCCCC1` is -11.7%.
In the case of `O=C1CCC(N2C(=O)c3ccc(Br)cc3C2=O)C(=O)N1` (centres undefined), the relative growth recovery was -13.2%.
The figure for `Cc1cnc(Nc2cccc(C3CCN(CC(=O)N4CCC(C)CC4)CC3)n2)s1` is -0.65%; for `Cc1ccc(C(C)C)c(OCC(=O)Nc2ccc(S(=O)(=O)Nc3ncccn3)cc2)c1` it is 0.11%.

Source of the values: the supplement of paper PMC12340641.
